Assay results from the supplement of paper PMC10338343.
± gives the standard deviation. This is a selection; strong and weak results do not stand in their true shares.

Tested on: MIWI (PIWIL1) piRISC loaded with L1MC piRNA (30 nt)
Assay: pre-steady-state target cleavage rate (min^-1); MIWI and MILI are mouse PIWI proteins and EfPiwi is from a freshwater sponge; tags in brackets are library labels; higher = faster piRNA-guided slicing of the target
Conditions: guide: L1MC piRNA 5'p-UAACUAAAUACUAUGCAAGCUGUAGGUCCU
Summary of the method: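 At 33 °C in HEPES–potassium acetate buffer, a transcribed, DNA-blocked target RNA library […] was exposed for 0–8 or 0–960 min to 1 nM active affinity-purified piRISC carrying a single synthetic guide, with or without 500 nM GTSF1 partner protein. Uncleaved targets were sequenced and normalised to depth and to weakly complementary targets. With three trials pooled and k3 capped at 0.0001 min^-1, a burst-and-steady-state fit produced the pre-steady-state cleavage rate.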

[1] = auxiliary factor: 500 nM mouse GTSF1
[2] = auxiliary factor: none (no GTSF1)
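Note: 1 nM active piRISC with 0.1 nM target library at 33 °C single turnover.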

Sequence: UCGUGCUACAGCUUGCAUAGUAUUUAGAAA
- pre-steady-state target cleavage rate [1]: 0.318 ± 0.037
- pre-steady-state target cleavage rate [2]: 0.00463 ± 0.0016

Sequence: UCCUGGAUCAGCUUGCAUAGUAUUUUCUUA
- pre-steady-state target cleavage rate [1]: 0.119 ± 0.023
- pre-steady-state target cleavage rate [2]: 0.0119 ± 0.0036

Sequence: UCCUGGAACAGCAUGCAUACUAUUUAGUUA
- pre-steady-state target cleavage rate [1]: 0.343 ± 0.021
- pre-steady-state target cleavage rate [2]: 0.0203 ± 0.0053

Sequence: UGGACCUACAGCUUGCUUUGUAUUUAGUUA
- pre-steady-state target cleavage rate [1]: 0.222 ± 0.026
- pre-steady-state target cleavage rate [2]: 0.00649 ± 0.0017

Sequence: UCCUGGAUGAGCUUGCAUAGUGUUUAGUUA
- pre-steady-state target cleavage rate [1]: 0.708 ± 0.06
- pre-steady-state target cleavage rate [2]: 0.0494 ± 0.01

Sequence: UGGACCUACAGCUUGCAUAGAAAUUAGUUA
- pre-steady-state target cleavage rate [1]: 0.121 ± 0.011
- pre-steady-state target cleavage rate [2]: 0.00373 ± 0.0027

Sequence: UCCUGCUACUGCUUGCAUAGUAAUUAGUUA
- pre-steady-state target cleavage rate [1]: 0.301 ± 0.028
- pre-steady-state target cleavage rate [2]: 0.0143 ± 0.0029

Sequence: UGGACCUUCAGCUUGCAUAGUAUUUUGUUA
- pre-steady-state target cleavage rate [1]: 1.02 ± 0.058
- pre-steady-state target cleavage rate [2]: 0.05 ± 0.0093

Sequence: ACGUCCUACAGCUUGCAUAGUAUUUAGUUA
- pre-steady-state target cleavage rate [1]: 1.52 ± 0.055
- pre-steady-state target cleavage rate [2]: 0.0835 ± 0.013

Sequence: UCGACCUACAGCAUGCAUAGUAAUUAGUUA
- pre-steady-state target cleavage rate [1]: 0.8 ± 0.042
- pre-steady-state target cleavage rate [2]: 0.00983 ± 0.0022

Sequence: UCGACCUACAGCUUGUCAUAGUAUUUAGUUA
- pre-steady-state target cleavage rate [1]: 0.742 ± 0.083
- pre-steady-state target cleavage rate [2]: 0.00458 ± 0.0029

Sequence: UCCUCCUACACCUUGCAUAGUAUUUACUUA
- pre-steady-state target cleavage rate [1]: 0.31 ± 0.066
- pre-steady-state target cleavage rate [2]: 0.022 ± 0.005

Sequence: UCCUGGAUCUCCUUGCAUAGUAUUUAGUAA
- pre-steady-state target cleavage rate [1]: 0.284 ± 0.041
- pre-steady-state target cleavage rate [2]: 0.00848 ± 0.0024

Sequence: UCCUGGUACUGCUUGCAUUGUAUUUAGUUA
- pre-steady-state target cleavage rate [1]: 0.182 ± 0.031
- pre-steady-state target cleavage rate [2]: 0.0142 ± 0.0034

Sequence: AGGACCUACAGCUUGGAUAGAAUUUAGUUA
- pre-steady-state target cleavage rate [1]: 0.473 ± 0.054
- pre-steady-state target cleavage rate [2]: 0.0178 ± 0.0049

Sequence: UCCACACUACAGCUUGCAUAGUAUUUAGUUA
- pre-steady-state target cleavage rate [1]: 0.683 ± 0.047
- pre-steady-state target cleavage rate [2]: 0.0447 ± 0.0063

Sequence: UGGACCUACUGGUUGCAUAGUAUUUAGUUA
- pre-steady-state target cleavage rate [1]: 1 ± 0.063
- pre-steady-state target cleavage rate [2]: 0.0358 ± 0.008

Sequence: AGGACCUACAGCUUGCAUAGUAUCUAGUUA
- pre-steady-state target cleavage rate [1]: 0.831 ± 0.071
- pre-steady-state target cleavage rate [2]: 0.0662 ± 0.013

Sequence: UCCUGGUAGAGCUUGCAUUGUAUUUAGUUA
- pre-steady-state target cleavage rate [1]: 0.531 ± 0.024
- pre-steady-state target cleavage rate [2]: 0.0249 ± 0.0074

Sequence: UCCUGGUACAGGAUGCAUAGUAUUUAGUUA
- pre-steady-state target cleavage rate [1]: 0.418 ± 0.044
- pre-steady-state target cleavage rate [2]: 0.00284 ± 0.002
